Test results: PubChem BioAssay AID588855 (National Center for Advancing Translational Sciences (NCATS), 2011)
About 5,000 (1.2%) of roughly 410,000 compounds were called active. The shares of active, inactive and inconclusive entries below differ from those in the screen. The call rests on the fitted dose curve; in most records, active means well fitted inhibition curve with a large enough effect; inconclusive means small, poorly fitted or top-dose-only effect; inactive means no such curve, though single readings can be large or run the other way. A potency beside an inconclusive call is a rough fit, not a confirmed value.

assay: qHTS for Inhibitors of TGF-b; conditions: HepG2 CAGA-GFP TGF-b/SMAD3 reporter, GFP fluorescence, 18 h, TGF-beta stimulated, 500 pg/mL final; series mostly up to 46.1 µM; activity, negative = inhibition: at the top concentration; further: nearly all actives have a fitted effect of over 65% in size
In short: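 GFP signal (ex488/em500-530) from TGF-beta-stimulated HEPG2 CAGA-GFP cells, 500 pg/mL final, 18 h at 37 degrees C in DMEM plus 1% FBS, normalized to unstimulated and DMSO-stimulated controls.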
On the % scale 0 is the no-effect control and ±100 the full control effect; potency means the concentration at half of the fitted maximal effect; tags describe the fitted curve by direction and shape.

SMILES	Potency	activity, negative = inhibition
CCCCOC(=O)c1ccc(NC(=O)Cc2coc3ccc(C(C)C)cc23)cc1	active: 11.2 µM	–
COc1ccc(N2CCN(C(=O)c3ccc4c(c3)CCN4S(C)(=O)=O)CC2)cc1	inconclusive: 10 µM [inhibitor, partial curve]	–
CC[n+]1cc(-c2ccccc2)nc(N2CCOCC2)n1	inconclusive: 35.5 µM [inhibitor, single point]	–
CCN1C(=O)C(CC(=O)Nc2ccc(F)cc2)N(CCCN2CCN(c3ccc(F)cc3)CC2)C1=S (stereo not drawn)	inconclusive: 3.55 µM [inhibitor, partial curve, poor fit]	–
CCSc1nc2c(c(=O)[nH]c(=O)n2C)n1CC(O)COc1ccc(Cl)cc1 (stereo not drawn)	inconclusive: 1.41 µM [inhibitor, partial curve]	–
COc1ccc(-c2csc(N(CCCN(C)C)C(=O)c3ccccc3F)n2)cc1	inconclusive: 35.5 µM [inhibitor, single point]	–
CCOC(=O)[C@H]1[C@H]2COc3ccc(Cl)cc3[C@@H]2N2C(=O)c3cc(Br)ccc3NC(=O)[C@@]12C	inconclusive: 10 µM [inhibitor, partial curve, poor fit]	–
Cc1ccc(C)c(S(=O)(=O)c2nnn3c2nc(Nc2ccc(F)c(Cl)c2)c2sccc23)c1	inconclusive: 6.31 µM [inhibitor, partial curve, poor fit]	–
Cc1c(Cl)cccc1NC(=O)Cn1nc(C)c2sc3ccccc3c2c1=O	inconclusive: 8.91 µM [inhibitor, partial curve]	–
Cc1nc(SCC(=O)Nc2ccc(Br)cc2)[nH]c(=O)c1Cc1ccccc1	inconclusive: 35.5 µM [inhibitor, single point]	–
CCCN(CCC)c1nc(N)nc(-c2cc(Cl)ccc2OC)n1	–	inactive: -25%
COc1cccc(CC2(CO)CCCN(Cc3sc(N4CCCC4)nc3Cl)C2)c1 (stereo not drawn)	inconclusive: 5.62 µM [inhibitor, single point]	–
COc1ccccc1NS(=O)(=O)c1cccc(NC(=O)c2nc3nc(C)cc(C)n3n2)c1	–	inactive: -40.4%
O=S(=O)(c1ccc(-c2csc(Nc3ccc(F)cc3)n2)cc1)N1CCCC1	inconclusive: 3.55 µM [inhibitor, single point]	–
CC(C)(C)c1ccc(Oc2ccc(N)cn2)cc1	inconclusive: 3.16 µM [inhibitor, single point]	–
Cc1cccc(C2=NN(c3ccccc3)[C@H](CO)[C@H]2c2ccc(Cl)cc2)c1	inconclusive: 20 µM [inhibitor, single point]	–
CCOc1ccc(S(=O)(=O)NC(C)(C)C)cc1-c1nc2c(C(C)(C)C)nn(C)c2c(=O)[nH]1	inconclusive: 17.8 µM [inhibitor, partial curve, poor fit]	–
Cc1ccc(S(=O)(=O)Cn2nnnc2C(C(C)C)N2CCN(c3nc4ccccc4s3)CC2)cc1 (stereo not drawn)	inconclusive: 35.5 µM [inhibitor, single point]	–
COc1ccc(-c2cc(C(=O)NCCc3ccccc3)c3cc(C(C)C)ccc3n2)cc1	–	inactive: -8.45%
CCOC(=O)c1cc(S(=O)(=O)N2CCN(Cc3ccccc3)CC2)cn1C	–	inactive: -13.3%
O=C1c2sc3nc4n(c(=O)c3c2CCC1Br)CCCCC4 (stereo not drawn)	–	inactive: -17.5%
CCN1C(=S)SC(=O)C1=C1C=C(C)N(Cc2ccco2)C(C)=C1	–	inactive: 2.31%
O=C1CN(C(=O)c2ccco2)c2ccccc2N1	inconclusive: 35.5 µM [inhibitor, single point]	–

SMILES	Potency	activity, negative = inhibition
O=C(O)c1ccc(CSc2nc3ccccc3[nH]2)cc1	–	inactive: 3.89%
Cc1ccc(-c2ccc(CN3C(C)C(=O)N(Cc4cn(CCC5OCCO5)nn4)CCS3(=O)=O)cc2)cc1 (stereo not drawn)	–	inactive: -0.283%
COc1ccccc1N1CCN(S(=O)(=O)CCNC(=O)CC2CCCCC2)CC1	inconclusive: 7.08 µM [inhibitor, partial curve]	–
CCCCOc1cccc2c(=O)n(CC(=O)Nc3ccc4c(c3)OCCO4)ccc12	inconclusive: 25.1 µM [inhibitor, single point]	–
Cc1cc(Cl)ccc1OCC(=O)Nc1ccncc1	inconclusive: 7.08 µM [inhibitor, partial curve, poor fit]	–
Brc1ccccc1Cn1c(-c2cscn2)nc2ccccc21	–	inactive: 13.4%
Cc1ccccc1NC(=O)Cn1c([N+](=O)[O-])cnc1C	inconclusive: 5.01 µM [inhibitor, single point]	–
CCCOC(=O)C1NC(=O)N2C(C(=O)OCCC)C(C)(C)S[C@H]12 (stereo partly drawn)	inconclusive: 7.94 µM [inhibitor, partial curve, poor fit]	–
Cc1ccc(-c2nn(-c3ccccc3)cc2C2SCC(=O)N2Cc2ccccc2)o1 (stereo not drawn)	inconclusive: 31.6 µM [inhibitor, single point]	–
Cc1ccc(NC(=S)NC(NC(=O)c2ccccc2)C(Cl)(Cl)Cl)c(C)c1 (stereo not drawn)	inconclusive: 11.2 µM [inhibitor, single point]	–
CCOC1=C2[C@H](c3ccccc3)N(S(=O)(=O)c3ccc(C)cc3)[C@H](C(C)C)[C@H]2n2c(=O)n(-c3ccccc3)c(=O)n2C1	inconclusive: 7.08 µM [inhibitor, partial curve, poor fit]	–
CCCCCCSc1ccc([C@@H]2[C@@H]3C(=O)N(CC)C(=O)[C@@H]3[C@]3(C(=O)OC)CCCCN23)cc1OC	inconclusive: 20 µM [inhibitor, single point]	–
COc1cc(-c2nc3ccc(C)cn3c2Nc2ccc(Cl)cc2)ccc1O	inconclusive: 31.6 µM [inhibitor, single point]	–
COc1cc(C(=O)NNC(=O)c2cc(-c3ccccc3)n[nH]2)cc(OC)c1C	–	inactive: -19.9%
Cc1cc(C(=O)N2CCC2(C)C(=O)Nc2cccc3c2CCCC3)nn1C (stereo not drawn)	inconclusive: 4.47 µM [inhibitor, single point]	–
CC(=O)NC(=S)Nc1ccc(NC(=S)NC(=O)c2cccs2)cc1	inconclusive: 1.26 µM [inhibitor, full curve]	–
COC(=O)c1ccc(NC(=O)CN2CCCC2)cc1	–	inactive: 14%
O=C(c1ccco1)N1CCN(c2ccc(S(=O)(=O)N3CCCC3)cc2)CC1	inconclusive: 35.5 µM [inhibitor, single point]	–
CCOC(=O)C(Cc1c[nH]c2ccccc12)NC(=O)COc1ccc(Cl)cc1 (stereo not drawn)	inconclusive: 22.4 µM [inhibitor, single point]	–
CCOC(=O)N1CCN(S(=O)(=O)c2ccc(F)c(C(=O)Nc3ccc(C)c(Cl)c3)c2)CC1	inconclusive: 14.1 µM [inhibitor, partial curve, poor fit]	–
CC(C)Oc1ccc(CNC(=O)CCCn2c(=O)c3cccn3c3cccnc32)cc1	inconclusive: 11.2 µM [inhibitor, partial curve]	–
O=C(c1ccccc1)C(O)c1ccccc1 (stereo not drawn)	–	inactive: 5.13%
CCN(CC)S(=O)(=O)c1ccc(N2CCOCC2)c(NC(=O)c2cc(-c3ccccn3)nc3ccccc23)c1	–	inactive: -2.51%

SMILES	Potency	activity, negative = inhibition
COc1ccccc1NC(=O)CCCN1C(=O)C(c2ccccc2)Oc2cccnc21 (stereo not drawn)	–	inactive: 3.02%
Cc1ccc2c(=O)c(C(=O)c3ccccc3)cn(CC(=O)Nc3ccccc3)c2n1	–	inactive: -2.79%
Cc1ccc(-c2nn(-c3ccccc3)cc2CC(=S)N2CCOCC2)cc1	inconclusive: 35.5 µM [inhibitor, single point]	–
COC(=O)COc1ccc(C2NC(=O)NC(c3ccccc3)=C2C(C)=O)cc1Br (stereo not drawn)	inconclusive: 35.5 µM [inhibitor, single point]	–
OCC[N+]1(CCc2ccccc2)CCOCC1	–	inactive: -17.8%
CN1c2ccccc2C(C)(C)C12CC(CCl)=NO2 (stereo not drawn)	–	inactive: -1.27%
Cc1c(C(=O)N2CCC(C(=O)Nc3ccc(F)cc3)CC2)sc2nc[nH]c(=O)c12	–	inactive: -27%
O=[N+]([O-])c1ccc(O/N=[N+](\[O-])N2CCN(c3ccccc3)CC2)c([N+](=O)[O-])c1	active: 11.2 µM	–
O=C(COc1ccc2c(c1)OCO2)NCc1cccs1	inconclusive: 0.1 µM [inhibitor, full curve, poor fit]	–
CS(=O)(=O)N1CCc2cc(C(=O)NCc3ccccc3)ccc21	inconclusive: 0.112 µM [inhibitor, full curve, poor fit]	–
CCCC(=O)N1CCCC(c2cc(C(=O)NCc3cccnc3)no2)C1 (stereo not drawn)	–	inactive: -0.135%
CN=c1scc(-c2ccccc2F)n1/N=C/c1ccc[nH]1	–	inactive: -13.1%
COc1cc(NCc2ccccc2)c2ncn(Cc3ccccc3)c2c1	inconclusive: 35.5 µM [inhibitor, single point]	–
CCN(Cc1ccccc1)S(=O)(=O)c1cc(C(=O)NC(C)C2CC3CCC2C3)ccc1OC (stereo not drawn)	inconclusive: 28.2 µM [inhibitor, single point]	–
O=C(NC1CCCCC1)c1ccc(-n2cncn2)c([N+](=O)[O-])c1	inconclusive: 35.5 µM [inhibitor, single point]	–
CCN1C(=NCCOC)N[C@@H](c2cccs2)C(C(=O)OC)=C1C	–	inactive: 3.66%
O=C(NCCc1cccc(Cl)c1)c1cc2ccccc2oc1=O	–	inactive: -9.08%
CCC(C)NC(=O)c1c(-c2ccccc2)c(-c2ccccc2)nn(C)c1=O (stereo not drawn)	inconclusive: 0.398 µM [inhibitor, partial curve, poor fit]	–
Cc1cccc2sc(N3CCN(C(=O)C4COc5ccccc5O4)CC3)nc12 (stereo not drawn)	inconclusive: 15.8 µM [inhibitor, partial curve, poor fit]	–
CCOC(=O)N1CCN(C(=O)C2CCCN(S(=O)(=O)c3ccccc3)C2)CC1 (stereo not drawn)	–	inactive: -3.02%
O=C(NC1CC(=O)N(c2ccc(Cl)cc2)C1)c1cccs1 (stereo not drawn)	–	inactive: -5.55%
NC1=NC[C@H](c2ccccc2)N1CC1CCCCC1	–	inactive: -15.1%
